Laboratory results from PubChem BioAssay AID588855 (National Center for Advancing Translational Sciences (NCATS), 2011).
Among all 410,000 compounds or so, about 5,000 (1.2%) were called active. The inconclusive results got no clear call from the source; some entries with a clear call stand among them for comparison. The call rests on the fitted dose curve; in most records, active means well fitted inhibition curve with a large enough effect; inconclusive means small, poorly fitted or top-dose-only effect; inactive means no such curve, though single readings can be large or run the other way. Potencies beside an inconclusive call are fits to weak or partial responses and may not hold up.

Assay: qHTS for Inhibitors of TGF-b; further: nearly all actives have a fitted effect of over 65% in size
Settings: HepG2 CAGA-GFP TGF-b/SMAD3 reporter, GFP fluorescence, 18 h, TGF-beta stimulated, 500 pg/mL final; series mostly up to 46.1 µM; activity, negative = inhibition: at the top concentration
Procedure, shortened: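 First, reporter cells (HEPG2 CAGA-GFP) rested 2 h at 37 degrees C. Next, compounds were pinned in and TGF-beta added to 500 pg/mL final. After 18 h, GFP was imaged per cell and summed per well.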
On the % scale 0 is the no-effect control and ±100 the full control effect; potency means the concentration at half of the fitted maximal effect; tags describe the fitted curve by direction and shape.

Compound	activity, negative = inhibition	Potency
CN1CCN(C(=O)C(=O)c2cn(CC(=O)N3CCCCCC3)c3ccccc23)CC1	inactive: 1.39%	–
COc1ccc(CCN(Cc2ccccn2)C(=S)Nc2cccc(SC)c2)cc1OC	–	inconclusive: 35.5 µM [inhibitor, single point]
CNc1ccc(N=Nc2cccc3ncccc23)cc1	–	inconclusive: 0.126 µM [inhibitor, full curve, poor fit]
CCOC(=O)c1c(SCC(=O)Nc2nccs2)nc(C)c(C)c1C	–	inconclusive: 35.5 µM [inhibitor, single point]
COc1ccc(Sc2ccc(NC(=O)c3cccc(Cl)c3)cc2C#N)cc1	–	inconclusive: 12.6 µM [inhibitor, single point]
CCN(CC)CC(=O)Nc1cccc(S(=O)(=O)N2CCCC2)c1	inactive: -5.52%	–
O=C(N/N=C/c1cccs1)c1cc(-c2ccc3ccccc3c2)n[nH]1	–	inconclusive: 20 µM [inhibitor, single point]
Cc1cccc(-n2nnnc2SCC(=O)Nc2cccc(S(N)(=O)=O)c2)c1	–	inconclusive: 35.5 µM [inhibitor, single point]
O=c1c2ccccc2c(-c2cccc(C(F)(F)F)c2)nn1-c1ccccc1	inactive: -13.5%	–
Cc1ccc(SCC(=O)Nc2ccc(-c3nc4ccccc4[nH]3)cc2)cc1	–	inconclusive: 35.5 µM [inhibitor, single point]
Nc1cnn(Cc2ccccc2F)c1	–	inconclusive: 11.2 µM [inhibitor, partial curve]
CCOC(=O)c1c(-c2ccccc2)oc2ccc(O)cc12	–	inconclusive: 35.5 µM [inhibitor, single point]
COc1ccccc1N=CC=C1OC(C)(C)C(C)(C)O1	–	inconclusive: 35.5 µM [inhibitor, single point]
O=C(Nc1ccc(S(=O)(=O)Nc2cnc3ccccc3n2)cc1)c1ccc(Cl)cc1Cl	–	inconclusive: 35.5 µM [inhibitor, single point]
CC[C@@H](CC1CCCCC1)C(=O)N(Cc1ccccc1)c1ccccc1	–	active: 2.51 µM
Cc1ccc2nc3c(cc(C(=O)NC4CCCC4)c(=N)n3C3CCCCC3)c(=O)n2c1	inactive: -19.3%	–
CCN1CCN(c2ccc(Cl)cc2NC(=O)c2ccc(-n3nc(C)cc3C)cc2)CC1	inactive: -6.36%	–
CCC(=O)N1CCc2cc(Br)cc(S(=O)(=O)N3CCCC(C(=O)N(C)c4ccc(Br)cc4)C3)c21 (stereo not drawn)	–	inconclusive: 6.31 µM [inhibitor, partial curve, poor fit]
CCSC1=C(C#N)C(c2ccccc2Cl)C(C(=O)c2cccs2)C(O)(C(F)(F)F)N1 (stereo not drawn)	–	inconclusive: 20 µM [inhibitor, single point]
Cc1ccsc1/C=N/NC(=O)Cc1cccn1C	–	inconclusive: 3.55 µM [inhibitor, single point]
Cc1cc(C)c2c(CC(=O)N(Cc3ccccc3)C3CCS(=O)(=O)C3)coc2c1 (stereo not drawn)	–	inconclusive: 35.5 µM [inhibitor, single point]

Compound	activity, negative = inhibition	Potency
Cc1cc(C)cc(OCC(=O)Nc2ccc(-c3nc4ccccc4o3)cc2)c1	inactive: 4.76%	–
Cc1ccc2c(c1Br)/C(=N/N1C(=O)c3ccccc3C1=O)C(=O)N2	–	inconclusive: 35.5 µM [inhibitor, single point]
CSc1ccc(S(=O)(=O)NCC(=O)OCCOc2ccccc2)cc1[N+](=O)[O-]	–	inconclusive: 35.5 µM [inhibitor, single point]
COc1cccc(CNC(=O)CCC2CCCN(C(=O)c3cccnc3SC)C2)c1 (stereo not drawn)	–	inconclusive: 35.5 µM [inhibitor, single point]
CCc1ccc(OCC(O)CN2CCN(c3ccccn3)CC2)cc1 (stereo not drawn)	–	inconclusive: 15.8 µM [inhibitor, single point]
Cn1c(=O)[nH]c(=O)c2c1nc(N(CCO)Cc1ccccc1)n2CCCc1ccccc1	inactive: 7.12%	–
N#C/C(=C1\CCCN1)c1ccc2ccccc2n1	–	inconclusive: 5.62 µM [inhibitor, single point]
CCC(=O)N1CCc2cc(S(=O)(=O)NC(C(=O)Nc3ccc(C(C)=O)cc3)C(C)C)ccc21 (stereo not drawn)	–	inconclusive: 35.5 µM [inhibitor, single point]
COc1cc(C(=S)N2CCCCC2)ccc1OCC(=O)Nc1ccccc1Cl	inactive: -9.61%	–
Cc1ccc(Cl)cc1-c1cc(C(=O)Nc2ccc(F)cc2)[nH]n1	–	inconclusive: 35.5 µM [inhibitor, single point]
C[C@H]1CCCCO[C@H](CN(C)C(=O)Nc2ccc(F)cc2)[C@@H](C)CN([C@@H](C)CO)C(=O)c2cc(NC(=O)Nc3ccc4c(c3)OCO4)ccc2O1	–	inconclusive: 2.82 µM [inhibitor, partial curve]
CC(C)CC(=O)Nc1cc2nn(-c3ccccc3)nc2cc1Cl	–	inconclusive: 2.24 µM [inhibitor, full curve, poor fit]
CCCn1c2ccccc2c2cnn(CC(=O)N3CCC(C)CC3)c(=O)c21	–	inconclusive: 35.5 µM [inhibitor, single point]
CCc1ccc(CNC(=O)c2cnc3sc4cc(OC)ccc4n3c2=O)cc1	inactive: 24.4%	–
Cc1csc(NC(=O)c2ccc(C)c([N+](=O)[O-])c2)n1	–	inconclusive: 4.47 µM [inhibitor, full curve]
Cn1c(-c2ccc(Br)o2)nc2cc(Br)ccc21	–	inconclusive: 35.5 µM [inhibitor, single point]
C[C@@H](NC(=O)c1nc[nH]c1C(=O)NCCCCCNC(=O)OC(C)(C)C)c1ccccc1	–	inconclusive: 35.5 µM [inhibitor, single point]
CC(Sc1nc(-c2ccc(F)cc2)cs1)C(=O)Nc1ccc(Cl)cn1 (stereo not drawn)	–	inconclusive: 6.31 µM [inhibitor, single point]
CCOC(=O)c1c(C)nc2sc(C(=O)Nc3ccc(C(C)=O)cc3)c(N)c2c1-c1ccc(OC)cc1	–	inconclusive: 22.4 µM [inhibitor, partial curve, poor fit]
COc1cccc(C(=O)N2c3cc(C)ccc3C(C)(c3ccccc3)CC2(C)C)c1 (stereo not drawn)	–	inconclusive: 11.2 µM [inhibitor, partial curve, poor fit]
COc1ccc(C(=O)NCC(=O)OCC(=O)NC23CC4CC(CC(C4)C2)C3)cc1	–	inconclusive: 14.1 µM [inhibitor, partial curve, poor fit]

Compound	activity, negative = inhibition	Potency
Cc1cccc(NC(=O)c2nc[nH]c2C(=O)NCCN(CCNC(=O)c2[nH]cnc2C(=O)Nc2cccc(C)c2)CCNC(=O)c2[nH]cnc2C(=O)Nc2cccc(C)c2)c1	inactive: 19.2%	–
COc1ccc(S(=O)(=O)NN(C)C)cc1N(C)S(=O)(=O)c1ccc(Cl)cc1	inactive: 0.892%	–
C=CCN1C(=O)C(O)(CC(=O)c2ccco2)c2cc(Br)ccc21 (stereo not drawn)	–	inconclusive: 35.5 µM [inhibitor, single point]
Cc1cccc(-c2ccc3[nH]c4c(c3c2)CCN2C[C@@H]([C@H](C)OC(=O)Nc3ccccc3C)[C@@H](N(C)C(=O)Nc3ccccc3C)C[C@@H]42)c1	–	inconclusive: 17.8 µM [inhibitor, single point]
Cc1cc(-c2ccccc2)nc2cc(C(=O)N(Cc3ccccc3)Cc3ccccc3)nn12	–	inconclusive: 35.5 µM [inhibitor, single point]
CCOC(=O)c1sc(NC(=O)Nc2ccc(F)cc2)nc1C	–	inconclusive: 35.5 µM [inhibitor, single point]
Cc1ccccc1-c1nc2c3ccccc3nc(=S)n2[nH]1	–	inconclusive: 2 µM [inhibitor, full curve]
O=C(NC(=S)Nc1ccc(S(=O)(=O)NC2CCCCC2)cc1)c1cccs1	–	inconclusive: 35.5 µM [inhibitor, single point]
Cc1c(Cl)cccc1S(=O)(=O)N1CCC(C(=O)NNC(=O)C2CC2)CC1	–	inconclusive: 7.08 µM [inhibitor, full curve, poor fit]
CCc1ccc(NC(=O)C(=O)NCCc2csc(-c3ccc(C(F)(F)F)cc3)n2)cc1	–	inconclusive: 15.8 µM [inhibitor, partial curve, poor fit]
COC(=O)C1=C(C)N(Cc2ccccc2)C(=NCc2cccc(C(F)(F)F)c2)N[C@H]1c1cccc(F)c1	–	inconclusive: 35.5 µM [inhibitor, single point]
CCOCCCNC(=O)C1CCN(C(=O)Nc2ccc(C)cc2)CC1	–	inconclusive: 35.5 µM [inhibitor, single point]
O=C(COc1ccc(Br)cc1)Nc1ccc(CN2CCOCC2)cc1	–	inconclusive: 15.8 µM [inhibitor, single point]
CCn1c(CCc2ccccc2)nc2ccccc21	inactive: 12.1%	–
NC1=C(c2ccc([N+](=O)[O-])cc2)C(=O)CO1	inactive: 5.24%	–
COc1ccc(C(=O)/C=C/C(=O)N(CC(=O)NC2CCCCC2)Cc2cccs2)c(O)c1	–	inconclusive: 14.1 µM [inhibitor, single point]
N#CCSc1nnc(COc2cccc3ccccc23)n1-c1ccccc1	–	inconclusive: 35.5 µM [inhibitor, single point]
COc1cc(NC(=O)c2nnn(Cc3ccc(SC)cc3)c2N)cc(OC)c1	–	inconclusive: 20 µM [inhibitor, single point]
Cn1c(SCC(=O)N2CCCc3ccccc32)nc2ccccc2c1=O	–	inconclusive: 35.5 µM [inhibitor, single point]
Cc1ccc(NC(=O)c2c(C)oc3ccc(O)c(CN4CCCCCC4)c23)c(C)c1	–	inconclusive: 28.2 µM [inhibitor, single point]
CCc1nnc(NS(=O)(=O)c2ccc(NC(=O)CCC(=O)OC)cc2)s1	–	inconclusive: 3.16 µM [inhibitor, single point]
